Structures are written as SMILES. The list shows a part of the results.

The test system of this assay is T1, C. trachomatis L2/434/Bu expressing GFP (CTL2-GFP).
T1 construct: L2/434/Bu GFP intracellular growth in HeLa cells
Further details: species or system HeLa; C. trachomatis total inclusion area by high-content imaging, normalised to DMSO. To be noted: total inclusion area; 28.5 h, 10 µM; inhibitor. The essentials:
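High-content imaging followed the bulk GFP/resorufin measurement: fixed, Hoechst-stained cells were scored for GFP inclusions and host nuclei per well. Total inclusion area and count served as growth proxies, nuclei number as the viability proxy. MIC calculation matched the bulk assay.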
With `O=C(Nc1nc2ccc(Cl)cc2s1)c1nc(SCc2ccccc2)ncc1Cl` [CBK268825], the “% of control remaining” value turned out to be 103.052.

In the case of `O=C(O)CCCC(=O)Nc1ccc(C(=O)O)cc1` [CBK261534], the “% of control remaining” value was determined as 85.8882. Then `CNC(=O)Nc1ccc(C(C)(C)C)cc1Br` [CBK086434], with 144.882. Under `Cc1nn(CCC#N)c(C)c1[C@@H]1C=C[C@@H](NC(=O)NCc2ccccc2)C1` [CBK289174] stands 88.0878; under `COc1cc(CC(=O)Nc2cccc(-c3ccc(OC4CCNCC4)cc3)n2)cc(OC)c1OC` [CBK138351], 85.2914. Then `N#CCCCN1CCC(Oc2nccnc2OCc2cccc(C(F)(F)F)c2F)CC1` [CBK153646], with 77.8603; and `CCOC(=O)C(Cc1ccccc1)NC(=O)c1cn[nH]c1C` (stereo not drawn) [CBK305499], with 42.9501. Consider `Cc1ccc(C(=O)O)cc1NC(=O)c1ncn(-c2ccccc2)n1` [CBK269181], for which the “% of control remaining” value stood at 107.368. For `CC(NC(=O)CCN1CCN(C)CC1)c1cc2cc(Cl)ccc2o1` (stereo not drawn) [CBK281601], the “% of control remaining” value is listed as 66.9175.

With `N#Cc1c(NC(=O)c2cc(S(=O)(=O)N3CCCCC3)c(Cl)cc2Cl)sc2c1CCCC2` [CBK264579], the “% of control remaining” value is 92.9126. Under `Cc1ccc(C(=O)N2CCN(S(=O)(=O)c3sc(C(=O)O)c(C)c3C(=O)O)CC2)s1` [CBK297150] stands 109.325; under `O=C1CC(c2ccccc2)=NN1c1nc(-c2ccccc2)cc(-c2ccc(F)cc2)n1` [CBK261717], 111.317; under `CCN(CCO)c1ccc(Nc2nc(-c3c(OC)cccc3OC)cn3ccnc23)cc1` [CBK066267], 84.6696. Consider `Cc1csc(CCNCc2c(C(C)C)nn(C)c2N(C)C)n1` [CBK304140], for which the “% of control remaining” value was 103.866. Under `N#Cc1nc(-c2ccccc2)oc1NCCN1CCCCC1` [CBK264573] stands 101.55; under `CC(CC(=O)N1CCOC(c2nc(C(C)(C)C)n[nH]2)C1)n1cccc1` (stereo not drawn) [CBK305214], 47.9312; under `COC(=O)[C@H]1CN(C(=O)C2CC(=O)N(C)C2)C[C@@H]1c1ccccc1F` (stereo partly drawn) [CBK285470], 76.0564.

Take `CCOC(=O)C1CCCN(Cc2cc(F)cc(C(C)=O)c2O)C1` (stereo not drawn) [CBK304020]: the “% of control remaining” value turned out to be 87.7087. As to `O=C(NO)c1nc[nH]c1C(=O)NO` [CBK262077], the “% of control remaining” value amounted to 101.127. For `Cc1ccc(Oc2nnnn2-c2ccccc2)c(Br)c1` [CBK002827], the “% of control remaining” value was determined as 119.713. Under `CCOC(=O)N1CCC(NC(=O)N(CCC#N)C2CCCCC2)CC1` [CBK156384] stands 88.8832.

For the molecule `c1ccc(-c2nccnc2NCC2CC2)cc1` [CBK088539], the “% of control remaining” value turned out to be 96.3848. Then `C=CCNC(=O)C1C2CCC3(CC(=O)c4cc(Cl)ccc4O3)C21` (stereo not drawn) [CBK284873], with 98.3881; and `CCOC(=O)C1CCCN(S(=O)(=O)c2cc(C)c(Cl)cc2C)C1` (stereo not drawn) [CBK044846], with 56.6941. In the case of `O=[N+]([O-])c1cc2c(cc1C(Nc1ccccn1)c1cc(Cl)c3cccnc3c1O)OCO2` (stereo not drawn) [CBK267795], the “% of control remaining” value is given as 44.2611. Then `CCOC(=O)C1=c2s/c(=C\c3cccnc3)c(=O)n2C(N)=C(C#N)C1c1cccnc1` (stereo not drawn) [CBK262549], with 89.4459; and `O=C(Cc1c[nH]c2ccccc12)N1CCC2(CCCN(C(=O)c3ccc(OC(F)(F)F)cc3)C2)C1` (stereo not drawn) [CBK131579], with 96.682. In the case of `c1ccc(-c2nnc3sc(-c4ccccn4)nn23)cc1` [CBK267344], the “% of control remaining” value was 112.533.

In the case of `Brc1ccc(-c2nnco2)cc1` [CBK026512], the “% of control remaining” value was determined as 64.7989. `Cc1ccc(CN(CCCn2ccnc2)Cc2cnn(C)c2)s1` [CBK283113]: the “% of control remaining” value is on record as 75.7367. In the case of `O=C(COc1ccc(S(=O)(=O)N2CCCCC2)cc1)Nc1ccc2c(c1)OCCO2` [CBK268205], the “% of control remaining” value was 85.0091.

As for `c1ccc2c(c1)nc(N1CCNCC1)n1cnnc21` [CBK270145], the “% of control remaining” value stood at 87.0439. Under `COc1ccc([C@@]23CCC(N)C[C@@H]2N(C)CC3)c(F)c1OC` (stereo partly drawn) [CBK067416] stands 16.0212; under `CCN(CC)C(=O)CCc1nc2sc3c(c2c(=O)[nH]1)CCCC3` [CBK305069], 61.154; under `CC(=O)Nc1ccc(-c2nc[nH]c2Br)cc1` [CBK019063], 72.8993. Then `CC(C)c1nccn1CCCn1cncc1-c1cnn(C)c1` [CBK281812], with 89.5802; and `CCn1c(C(C)NC2CCN(CC(=O)OC)CC2)nc2ccccc21` (stereo not drawn) [CBK305396], with 86.7016; and `CC(=O)NCC(CN1CCOCC1)([N+](=O)[O-])[N+](=O)[O-]` [CBK261337], with 104.435. Consider `NC1=C(c2nc3ccccc3s2)C(=O)CN1CCCN1CCOCC1` [CBK265925], for which the “% of control remaining” value is listed as 158.398. Then `CN(Cc1nc2ccccc2c(=O)[nH]1)Cc1cc2c(cc1Br)OCCO2` [CBK296715], with 91.4744; and `c1cncc(-c2nccnc2NCCCN2CCOCC2)c1` [CBK037286], with 96.9583. With `CCC(=O)N1CCC2(C/C=C/CC(=O)Nc3cccc(n3)C3CN(CCO3)C(=O)CN(C)C2=O)CC1` (stereo not drawn) [CBK292004], the “% of control remaining” value was 101.365.

For `O=C(CN(c1ccccc1)S(=O)(=O)c1ccccc1)N1CCN(Cc2ccc3c(c2)OCO3)CC1` [CBK265290], the “% of control remaining” value was determined as 101.301. With `COc1ccccc1-c1nccnc1N1CCCC1CO` (stereo not drawn) [CBK036735], the “% of control remaining” value is on record as 104.882. Under `Cc1ccc(-c2noc(CN3CCN(c4ccccn4)CC3)n2)cc1` [CBK266457] stands 104.863; under `FC(F)(F)c1ccc(OCCN2CCOCC2)nc1` [CBK113461], 58.7462. Then `NC(C(=O)O)C(O)c1ccccc1[N+](=O)[O-]` (stereo not drawn) [CBK262389], with 103.597; and `CS(=O)(=O)c1ccccc1S(=O)(=O)N1CCN(c2nc3ccccc3s2)CC1` [CBK269468], with 99.6376; and `O=[N+]([O-])c1ccc(S(=O)(=O)N2CCN(S(=O)(=O)c3ccc(Cl)cc3)CC2)cc1` [CBK264312], with 104.402. As to `COC(=O)c1c(NC(=S)Nc2ccn(C)n2)sc2c1CCCCC2` [CBK266888], the “% of control remaining” value came out at 85.2135. Under `Cn1cnc2cc(NCc3cc(-c4ccc(F)cc4)c[nH]c3=O)ccc21` [CBK284693] stands 88.1104; under `O=C(NCCN1CCCC1)c1cnc2cc(C(F)(F)F)ccc2c1O` [CBK107426], 75.3789. Under `CN(C(=O)Cc1ccccc1)c1ccccc1` [CBK012581] stands 80.5663; under `CCCc1n[nH]c(C2CC2)c1C(=O)OCC` [CBK115714], 49.3134; under `CC(C)C(=O)NC(=S)Nc1ccc2oc(-c3ccncc3)nc2c1` [CBK269702], 77.6951.

For `CCCN1CC(NS(=O)(=O)c2ccc3oc(=O)n(C)c3c2)CC1=O` (stereo not drawn) [CBK307664], the “% of control remaining” value is on record as 84.3113. Then `c1ccc(N2CCN(c3cncc(-c4cccs4)n3)CC2)nc1` [CBK065502], with 114.436; and `O=C(c1cccnc1)N1CCN(CCN2C(=O)C3C4C=CC(C4)C3C2=O)CC1` (stereo not drawn) [CBK263639], with 108.312; and `CN(C)CC(=O)NC(Cc1ccsc1)c1nccs1` (stereo not drawn) [CBK284801], with 104.411.

As for `Cc1nc(CN2CCCC(NCc3ccc(C(N)=O)cc3)C2)no1` (stereo not drawn) [CBK304962], the “% of control remaining” value was 46.5837. Regarding `Cn1c(NCc2ccco2)nc2c1c(=O)n(Cc1cccc(Br)c1)c(=O)n2C` [CBK268863], the “% of control remaining” value amounted to 78.7166. Then `COc1ccc2cc(COC(=O)c3cnc(C)cn3)c(Cl)nc2c1` [CBK295288], with 96.4548; and `Cc1ccc(NS(=O)(=O)c2cccs2)cc1` [CBK045362], with 112.127. Under `Cc1cc(-c2nnc(SCC(=O)N3CCOCC3)o2)no1` [CBK268984] stands 55.0901; under `CC(=O)Nc1nnc(-c2ccc(Cl)cc2)s1` [CBK287331], 107.87.

With `CCOCCn1c(N2CCCC(C)C2)nc2c1c(=O)[nH]c(=O)n2C` (stereo not drawn) [CBK304304], the “% of control remaining” value was 57.9747. Then `COc1ccc(-c2cnc3[nH]c(=O)n(CCN4CCOCC4)c3n2)cc1` [CBK064782], with 100.967; and `CC1CCc2n[nH]c(C(=O)N(C)CCc3ccncc3)c2C1` (stereo not drawn) [CBK283195], with 98.1758; and `CCOc1ccc(OC(=O)c2cccc(C)c2)cc1` [CBK083575], with 90.2239.

For the molecule `CC(=O)Nc1ccc(-c2ccc(COC3CCN(C(=O)Cc4ccc(C#N)cc4)CC3)cc2)cc1` [CBK149225], the “% of control remaining” value is on record as 75.3679. Consider `CCN(CC)CCCNC(=O)N1CCN(c2ccc(F)cc2)CC1` [CBK156419], for which the “% of control remaining” value is 111.731. Then `CC1CCc2c(sc(NC(=O)c3ccno3)c2C(N)=O)C1` (stereo not drawn) [CBK287752], with 63.4354; and `CC(C)(CN)c1ccccc1` [CBK012106C], with 66.5669. On to `COc1ccccc1/C=N/NC(=O)COc1c(Br)cc(Br)cc1Br` [CBK261966], for which the “% of control remaining” value is given as 96.7716. Under `Cc1ccc(N(CC(O)CN2C(=O)NC(C)(C)C2=O)S(=O)(=O)c2ccccc2)cc1` (stereo not drawn) [CBK263580] stands 78.9776.

Regarding `CNC(=O)CN1CC[C@H]2NC(=O)c3ccccc3OCC/C=C/C[C@H]2C1` [CBK292049], the “% of control remaining” value came to 113.251. Under `Cc1cc2ncc3c(n2n1)CC1CCC3N1C(=O)c1ccco1` (stereo not drawn) [CBK284379] stands 100.584; under `COc1cccc(/C=N/NC(=O)CCN2CCN(C)CC2)c1O` [CBK261499], 94.7994; under `CCOC(=O)c1ccc(N2CCN(C(C)=O)CC2)c(NC(=O)c2cccc(F)c2)c1` [CBK270263], 93.9853. Under `COc1cc(CNC(=O)N(CCC#N)C2CCCCC2)cc(OC)c1OC` [CBK156359] stands 95.1992; under `O=C(Nc1ccc(Cl)cc1Cl)NC(Cc1ccc(O)cc1)C(=O)O` (stereo not drawn) [CBK267386], 107.207.

For the origin of these results see publication PMC12040169 (PLOS Biology, 2025).
